Hit rate of the full screen: of about 360,000 compounds, about 25,000 (6.9%) were called active. The shares of active, inactive and inconclusive entries below differ from those in the screen. Calls follow the shape of the dose curve; as a rule, active = well fitted inhibition curve with a large enough effect; inconclusive = small, poorly fitted or top-dose-only effect; inactive = flat fitted curve, though single readings scatter. Potencies of inconclusive entries are doubtful fits and often do not repeat.
Each compound was assayed against Luciferin 4-monooxygenase (Photinus pyralis) (UniProt P08659) (assay: qHTS profiling assay for firefly luciferase inhibitor/activator using purifed enzyme and Km concentrations of substrates (counterscreen for miR-21 project)). Conditions: purified FLuc, luminescence inhibition; series mostly up to 57.5 µM; activity change, negative = inhibition: at the top concentration.
UniProt P08659, sequence (P08659 whole entry, looked up): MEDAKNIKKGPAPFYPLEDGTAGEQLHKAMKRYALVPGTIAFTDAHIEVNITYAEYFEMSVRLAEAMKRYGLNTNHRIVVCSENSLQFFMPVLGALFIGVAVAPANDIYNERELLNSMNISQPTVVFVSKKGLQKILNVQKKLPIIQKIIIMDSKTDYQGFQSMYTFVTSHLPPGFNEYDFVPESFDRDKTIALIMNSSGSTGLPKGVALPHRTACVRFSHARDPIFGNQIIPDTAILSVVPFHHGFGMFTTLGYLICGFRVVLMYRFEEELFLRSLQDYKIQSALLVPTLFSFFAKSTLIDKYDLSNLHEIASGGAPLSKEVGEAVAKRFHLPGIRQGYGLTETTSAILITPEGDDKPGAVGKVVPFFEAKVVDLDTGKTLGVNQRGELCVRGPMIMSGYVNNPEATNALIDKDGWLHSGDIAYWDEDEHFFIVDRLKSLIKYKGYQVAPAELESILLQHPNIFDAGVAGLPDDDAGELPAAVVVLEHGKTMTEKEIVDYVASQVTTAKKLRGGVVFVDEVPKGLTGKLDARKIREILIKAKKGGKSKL
In short: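 Purified P. pyralis luciferase (10nM final) with 10uM D-luciferin and 10uM ATP (Km levels) in 50mM Tris acetate pH 7.5, 10mM Mg acetate, 0.01% Tween-20, 0.05% BSA; qHTS 6-point titration, ~60 µM downward; luminescence read.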
In the case of O=C(NCc1cn(-c2ccccc2)nc1-c1ccc(F)cc1)c1cccc([N+](=O)[O-])c1, the Potency is reported as inconclusive: 37.9 µM [inhibitor, partial curve, poor fit]. S=C(Nc1ccc(Br)cc1Cl)Nn1cnnc1 was tested, and the Potency was inconclusive: 26.9 µM [inhibitor, single point]. In the case of O=C(O)c1ccc(COc2ccc(CO)cc2Cl)cc1, the Potency is reported as active: 5.36 µM. C#CCNC(=O)c1ccc(OCc2ccccc2)cc1Cl was tested, and the Potency was inconclusive: 30.1 µM [inhibitor, single point]. With CCN(C(=O)CSc1nnc(Nc2cccc(C)c2C)s1)C1CCS(=O)(=O)C1 (stereo unspecified) the Potency was inconclusive: 26.9 µM [inhibitor, single point]. With c1ccc2nc(-c3nccs3)ccc2c1 the Potency was active: 13.5 µM. In the case of CN(C)c1ccc(Nc2ccc([N+](=O)[O-])cn2)cc1, the Potency is reported as inconclusive: 13.5 µM [inhibitor, partial curve]. With O=C(Cn1cc(SCc2ccc(Cl)cc2)c2ccccc21)N1CCOCC1 the Potency was active: 23.9 µM. In the case of COC(=O)c1c(-c2ccccc2)c[nH]c1C, the Potency is reported as active: 26.9 µM. With CC(=O)Oc1ccc2c(=O)c(-c3nc4ccccc4s3)coc2c1 the Potency was active: 1.07 µM. CCCc1nn2c(=O)cc(COC(=O)c3cccc(NC(=O)c4ccc(OCC)cc4)c3)nc2s1 was tested, and the Potency was inconclusive: 8.49 µM [inhibitor, partial curve, poor fit]. In the case of COc1ccccc1OCCSc1nc2ccccc2c(=O)[nH]1, the Potency is reported as inconclusive: 9.53 µM [inhibitor, partial curve, poor fit]. With Cn1c(=O)c2c(nc(N3CCOCC3)n2Cc2ccccc2F)n(C)c1=O the “activity change, negative = inhibition” value was inactive: -1.77%. In the case of O=[N+]([O-])c1ccc(/C=N/N/C(=N/c2ccccn2)c2ccccn2)cc1, the Potency is reported as inconclusive: 16.9 µM [inhibitor, partial curve]. Clc1ncccc1-c1nc2ccccc2s1 was tested, and the Potency was active: 15.1 µM. With COc1ccccc1Nc1nc(Cl)c(C=O)s1 the Potency was inconclusive: 23.9 µM [inhibitor, single point]. With Clc1ccc(OCc2nn3c(C4CCCCC4)nnc3s2)c(Cl)c1 the Potency was inconclusive: 37.9 µM [inhibitor, partial curve, poor fit]. In the case of COc1ccc(-c2csc(NC(=O)c3ccc(S(C)(=O)=O)cc3)n2)cc1, the Potency is reported as inconclusive: 16.9 µM [inhibitor, partial curve]. With COC(=O)N/N=C/c1cc(C)n(-c2ccc(Br)cc2)c1C the Potency was inconclusive: 23.9 µM [inhibitor, partial curve]. CC(=O)N1C(=O)/C(=C2\SC(=S)N(NS(=O)(=O)c3ccc(C)cc3)C2=O)c2ccccc21 was tested, and the Potency was inconclusive: 37.9 µM [inhibitor, partial curve, poor fit]. For O=C(CCCn1nnnc1CN1CCOCC1)N1CCN(c2ccccc2F)CC1, the “activity change, negative = inhibition” value was inactive: 3.71%. CCN(CC)C(=O)COC(=O)C1=NN(c2cc(C)ccc2C)C(=O)CC1 was tested, and the “activity change, negative = inhibition” value was inactive: 2.37%. For COc1ccc(OCC(=O)Nc2cc(NC(=O)c3ccco3)ccc2OC)cc1, the Potency was inconclusive: 23.9 µM [inhibitor, single point]. In the case of CCOCCCNC(=O)C1CCN(Cc2ccc(OCc3ccccc3)c(OC)c2)CC1, the Potency is reported as inconclusive: 37.9 µM [inhibitor, single point]. NS(=O)(=O)c1ccc2nc(-c3ccccc3)c(-c3ccccc3)nc2c1 was tested, and the “activity change, negative = inhibition” value was inactive: -2.48%. CCC(=O)Oc1c(Sc2ccc(C)cc2)c(C)nn1-c1ccccc1 was tested, and the Potency was inconclusive: 10.7 µM [inhibitor, partial curve]. With Cc1ccccc1C(=O)O/N=C(\N)Cc1cccs1 the Potency was active: 12 µM. With Cc1sc(NC(=O)COc2ccccc2)c(C#N)c1-c1ccccc1 the Potency was inconclusive: 10.7 µM [inhibitor, partial curve]. In the case of CC(=O)c1cccc(NC(=O)COc2ccccc2)c1, the Potency is reported as inconclusive: 23.9 µM [inhibitor, single point]. For O=C1Nc2ccccc2N(O)N1c1cc(-c2ccccc2)[nH]n1, the Potency was inconclusive: 23.9 µM [inhibitor, single point]. Cc1ccc(CSC2=Nc3ccccc3C3=NC(=O)CN23)cc1 was tested, and the “activity change, negative = inhibition” value was inactive: -22.3%. For COc1ccc(NC(=O)c2cc(C)on2)cc1, the Potency was active: 21.3 µM. In the case of O=C(N/N=C/c1ccc(-c2ccccc2[N+](=O)[O-])o1)c1cccnc1, the Potency is reported as inconclusive: 42.6 µM [inhibitor, partial curve, poor fit]. With COc1ccc(Nc2ncccc2C(=O)O)cc1 the Potency was active: 15.1 µM. COc1ccc(CNc2ccc(C)cc2)cc1Br was tested, and the Potency was inconclusive: 21.3 µM [inhibitor, partial curve, poor fit]. With COCCCn1c(SCC(=O)Nc2ccc(OC)cc2)nc2c(sc3ccccc32)c1=O the “activity change, negative = inhibition” value was inactive: 1.99%. In the case of CC(C)CC(=O)Nc1ccc2nc(SCC(=O)N3CCOCC3)sc2c1, the Potency is reported as inconclusive: 21.3 µM [inhibitor, partial curve, poor fit]. For COc1cc(/C=C2\CCCc3c2nc2ccccc2c3C(=O)O)cc([N+](=O)[O-])c1O, the Potency was inconclusive: 21.3 µM [inhibitor, partial curve, poor fit]. For O=C(O)c1ccc(NCc2cccc(Br)c2)cc1, the Potency was inconclusive: 33.8 µM [inhibitor, single point]. With Cc1ccc(-c2nc3cccc(C)n3c2Nc2ccc3c(c2)OCO3)o1 the Potency was inconclusive: 30.1 µM [inhibitor, partial curve, poor fit]. In the case of Cc1ccc2nc(-c3ccc(SCC(=O)Nc4cc(C)on4)nc3)[nH]c2c1, the Potency is reported as active: 0.757 µM. With Cc1nn(-c2ccccc2)c(OC(=O)c2ccc(Cl)cc2)c1S(=O)(=O)c1ccccc1 the Potency was inconclusive: 9.53 µM [inhibitor, partial curve]. For Cc1onc(-c2c(F)cccc2Cl)c1-c1nnc(-c2cccc3ccccc23)o1, the “activity change, negative = inhibition” value was inactive: 3.18%. COc1cccc(CNC(=O)Cn2ncn3c(cc4ccccc43)c2=O)c1 was tested, and the “activity change, negative = inhibition” value was inactive: 3.75%. O=C(Nc1ccccc1)C1=C[C@@H](C2CC2)C[C@@H](OCc2ccc(CO)cc2)O1 was tested, and the Potency was active: 10.7 µM. With COc1ccc(/C=N/NC(=O)c2nn(-c3ccc(Cl)cc3)c(=O)c3c(N)scc23)cc1 the Potency was inconclusive: 4.78 µM [inhibitor, full curve].

Reference: PubChem BioAssay AID588342 (National Center for Advancing Translational Sciences (NCATS), 2011)
Also: nearly all actives have a fitted effect of over 55% in size.
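For activity change, negative = inhibition in this document: plate controls were vehicle for no effect and reference inhibitor for full effect.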
Potency is read from the fitted curve at half-maximal effect; tags tell the direction and shape of the fitted curve.
